Laboratory results reported in the supplement of paper PMC8728848.
The other results are listed elsewhere or left out.

Experiments:
Experiment in all cases: glycan array binding signal (z-score within array); higher = stronger binding
Conditions in all cases: glycan notation: IUPAC condensed, linker removed; mutation: F63H
[1] = molecular target: GlcNAc(b1-2)[GlcNAc(b1-4)]Man(a1-3)[GlcNAc(b1-4)][GlcNAc(b1-2)Man(a1-6)]Man(b1-4)GlcNAc(b1-4)GlcNAc
Summary of the method: (§1)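 The binding signal is a Z-score computed within each array and averaged over linkers. Arrays of the same protein sequence at different concentrations or buffers were also averaged together. Data originate from 3228 arrays in the Consortium for Functional Glycomics database, kept only where the protein sequence was available.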

[2] = molecular target: GlcNAc(b1-2)[GlcNAc(b1-4)]Man(a1-3)[GlcNAc(b1-4)][GlcNAc(b1-2)[GlcNAc(b1-6)]Man(a1-6)]Man(b1-4)GlcNAc(b1-4)GlcNAc
Summary of the method: as §1

[3] = molecular target: GlcNAc(b1-2)[GlcNAc(b1-4)]Man(a1-3)[GlcNAc(b1-4)][GlcNAc(b1-2)[GlcNAc(b1-6)]Man(a1-6)]Man(b1-4)GlcNAc(b1-4)[Fuc(a1-6)]GlcNAc
Summary of the method: as §1

[4] = molecular target: GlcNAc(b1-2)[GlcNAc(b1-6)]Man(a1-6)[GlcNAc(b1-2)Man(a1-3)]Man(b1-4)GlcNAc(b1-4)GlcNAc
Summary of the method: as §1

[5] = molecular target: GlcNAc(b1-2)[GlcNAc(b1-6)]Man(a1-6)[GlcNAc(b1-2)Man(a1-3)]Man(b1-4)GlcNAc(b1-4)[Fuc(a1-6)]GlcNAc
Summary of the method: as §1

[6] = molecular target: GlcNAc(b1-2)[GlcNAc(b1-6)]Man(a1-6)[GlcNAc(b1-4)][GlcNAc(b1-2)Man(a1-3)]Man(b1-4)GlcNAc(b1-4)GlcNAc
Summary of the method: as §1

[7] = molecular target: GlcNAc(b1-3)Fuc
Summary of the method: as §1

[8] = molecular target: GlcNAc(b1-3)Gal
Summary of the method: as §1

[9] = molecular target: GlcNAc(b1-3)Gal(b1-3)GalNAc
Summary of the method: as §1

[10] = molecular target: GlcNAc(b1-3)Gal(b1-4)Glc
Summary of the method: as §1

[11] = molecular target: GlcNAc(b1-3)Gal(b1-4)GlcNAc
Summary of the method: as §1

[12] = molecular target: GlcNAc(b1-3)Gal(b1-4)GlcNAc(b1-2)Man(a1-3)[GlcNAc(b1-3)Gal(b1-4)GlcNAc(b1-2)Man(a1-6)]Man(b1-4)GlcNAc(b1-4)GlcNAc
Summary of the method: as §1

[13] = molecular target: GlcNAc(b1-3)Gal(b1-4)GlcNAc(b1-2)Man(a1-3)[GlcNAc(b1-3)Gal(b1-4)GlcNAc(b1-2)Man(a1-6)]Man(b1-4)GlcNAc(b1-4)[Fuc(a1-6)]GlcNAc
Summary of the method: as §1

[14] = molecular target: GlcNAc(b1-3)Gal(b1-4)GlcNAc(b1-2)[GlcNAc(b1-3)Gal(b1-4)GlcNAc(b1-6)]Man(a1-6)[GlcNAc(b1-3)Gal(b1-4)GlcNAc(b1-2)Man(a1-3)]Man(b1-4)GlcNAc(b1-4)GlcNAc
Summary of the method: as §1

[15] = molecular target: GlcNAc(b1-3)Gal(b1-4)GlcNAc(b1-3)Gal(b1-4)GlcNAc
Summary of the method: as §1

[16] = molecular target: GlcNAc(b1-3)Gal(b1-4)GlcNAc(b1-3)Gal(b1-4)GlcNAc(b1-2)Man(a1-3)[GlcNAc(b1-3)Gal(b1-4)GlcNAc(b1-3)Gal(b1-4)GlcNAc(b1-2)Man(a1-6)]Man(b1-4)GlcNAc(b1-4)GlcNAc
Summary of the method: as §1

[17] = molecular target: GlcNAc(b1-3)Gal(b1-4)GlcNAc(b1-3)Gal(b1-4)GlcNAc(b1-2)Man(a1-3)[GlcNAc(b1-3)Gal(b1-4)GlcNAc(b1-3)Gal(b1-4)GlcNAc(b1-2)Man(a1-6)]Man(b1-4)GlcNAc(b1-4)[Fuc(a1-6)]GlcNAc
Summary of the method: as §1

[18] = molecular target: GlcNAc(b1-3)Gal(b1-4)GlcNAc(b1-3)Gal(b1-4)GlcNAc(b1-2)[GlcNAc(b1-3)Gal(b1-4)GlcNAc(b1-3)Gal(b1-4)GlcNAc(b1-6)]Man(a1-6)[GlcNAc(b1-3)Gal(b1-4)GlcNAc(b1-3)Gal(b1-4)GlcNAc(b1-2)Man(a1-3)]Man(b1-4)GlcNAc(b1-4)[Fuc(a1-6)]GlcNAc
Summary of the method: as §1

[19] = molecular target: GlcNAc(b1-3)Gal(b1-4)GlcNAc(b1-3)Gal(b1-4)GlcNAc(b1-3)Gal(b1-4)GlcNAc(b1-2)Man(a1-3)[GlcNAc(b1-3)Gal(b1-4)GlcNAc(b1-3)Gal(b1-4)GlcNAc(b1-3)Gal(b1-4)GlcNAc(b1-2)Man(a1-6)]Man(b1-4)GlcNAc(b1-4)GlcNAc
Summary of the method: as §1

[20] = molecular target: GlcNAc(b1-3)Gal(b1-4)GlcNAc(b1-3)Gal(b1-4)GlcNAc(b1-3)Gal(b1-4)GlcNAc(b1-2)Man(a1-3)[GlcNAc(b1-3)Gal(b1-4)GlcNAc(b1-3)Gal(b1-4)GlcNAc(b1-3)Gal(b1-4)GlcNAc(b1-2)Man(a1-6)]Man(b1-4)GlcNAc(b1-4)[Fuc(a1-6)]GlcNAc
Summary of the method: as §1

[21] = molecular target: GlcNAc(b1-3)Gal(b1-4)GlcNAc(b1-3)Gal(b1-4)GlcNAc(b1-3)Gal(b1-4)GlcNAc(b1-2)[GlcNAc(b1-3)Gal(b1-4)GlcNAc(b1-3)Gal(b1-4)GlcNAc(b1-3)Gal(b1-4)GlcNAc(b1-6)]Man(a1-6)[GlcNAc(b1-3)Gal(b1-4)GlcNAc(b1-3)Gal(b1-4)GlcNAc(b1-3)Gal(b1-4)GlcNAc(b1-2)Man(a1-3)]Man(b1-4)GlcNAc(b1-4)[Fuc(a1-6)]GlcNAc
Summary of the method: as §1

[22] = molecular target: GlcNAc(b1-3)Gal(b1-4)GlcNAc(b1-3)Gal(b1-4)GlcNAc(b1-3)Gal(b1-4)GlcNAc(b1-3)Gal(b1-4)GlcNAc(b1-2)Man(a1-3)[GlcNAc(b1-3)Gal(b1-4)GlcNAc(b1-3)Gal(b1-4)GlcNAc(b1-3)Gal(b1-4)GlcNAc(b1-3)Gal(b1-4)GlcNAc(b1-2)Man(a1-6)]Man(b1-4)GlcNAc(b1-4)GlcNAc
Summary of the method: as §1

[23] = molecular target: GlcNAc(b1-3)Gal(b1-4)GlcNAc(b1-3)Gal(b1-4)GlcNAc(b1-3)Gal(b1-4)GlcNAc(b1-3)Gal(b1-4)GlcNAc(b1-2)Man(a1-3)[GlcNAc(b1-3)Gal(b1-4)GlcNAc(b1-3)Gal(b1-4)GlcNAc(b1-3)Gal(b1-4)GlcNAc(b1-3)Gal(b1-4)GlcNAc(b1-2)Man(a1-6)]Man(b1-4)GlcNAc(b1-4)[Fuc(a1-6)]GlcNAc
Summary of the method: as §1

B1: AAL (Agrocybe aegerita), Q6WY08 (protein)
chain: MQGVNIYNISAGTSVDLAAPVTTGDIVTFFSSALNLNAGAGNPNNTTLNLFAENGAYLLHIAHRLQENVIIFNSRQPDGPWLVEQRVSDVANQFAGIDGKAMVTVFDHGDKYQVVINEKTVIQYTKQISGLTLSLSYNATEETSIFSTVVEAVTYTGLALEHHHHHH
glycan array binding signal (z-score) [1]: 0.362
glycan array binding signal (z-score) [2]: -0.091
glycan array binding signal (z-score) [3]: 0.194
glycan array binding signal (z-score) [4]: 0.144
glycan array binding signal (z-score) [5]: 0.15
glycan array binding signal (z-score) [6]: -0.394
glycan array binding signal (z-score) [7]: 0.225
glycan array binding signal (z-score) [8]: 0.181
glycan array binding signal (z-score) [9]: 0.116
glycan array binding signal (z-score) [10]: 1.42
glycan array binding signal (z-score) [11]: 0.152
glycan array binding signal (z-score) [12]: -0.1
glycan array binding signal (z-score) [13]: -0.15
glycan array binding signal (z-score) [14]: -0.481
glycan array binding signal (z-score) [15]: -0.158
glycan array binding signal (z-score) [16]: 0.222
glycan array binding signal (z-score) [17]: 0.391
glycan array binding signal (z-score) [18]: 0.909
glycan array binding signal (z-score) [19]: 0.262
glycan array binding signal (z-score) [20]: 0.906
glycan array binding signal (z-score) [21]: 0.893
glycan array binding signal (z-score) [22]: 0.027
glycan array binding signal (z-score) [23]: 0.444
